# Reference: the BET-seq Pho4 binding data (Le et al. 2018)
# The other results are listed elsewhere or left out. The energies were worked out here from pooled read counts, against the library average; single values are noisy.
# Biological target: T1, Pho4 (S. cerevisiae) (UniProt P07270)
# T1 sequence: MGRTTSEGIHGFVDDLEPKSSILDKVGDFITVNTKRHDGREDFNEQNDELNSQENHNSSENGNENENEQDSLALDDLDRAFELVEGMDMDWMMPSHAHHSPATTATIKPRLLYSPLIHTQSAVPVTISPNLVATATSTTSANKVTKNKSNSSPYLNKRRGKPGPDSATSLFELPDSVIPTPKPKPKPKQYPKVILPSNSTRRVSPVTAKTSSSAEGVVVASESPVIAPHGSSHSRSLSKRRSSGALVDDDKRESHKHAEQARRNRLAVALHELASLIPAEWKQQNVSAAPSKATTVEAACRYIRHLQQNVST
# Experiment: relative binding free energy (BET-seq); higher = weaker binding
# Conditions: reference: library average
row,Sequence,relative binding free energy [kcal/mol]
1,GGATTCACGTGGAAAT,0.39
2,ATGAACACGTGATGGA,0.18
3,TGAATCACGTGATGTT,0.3
4,ATGTCCACGTGGTAGT,0.03
5,TGATTCACGTGACATT,0.32
6,GGCTGCACGTGAGGTG,0.27
7,GGATGCACGTGAAGGA,0.21
8,GATGACACGTGATGTT,0.09
9,AGTTACACGTGAGGGG,0.29
10,AATCTCACGTGAGTGT,0.27
11,ATATGCACGTGGTTCT,-0.14
12,GATGTCACGTGTAAAT,0.23
13,GATTTCACGTGGTAAT,0.27
14,TATGGCACGTGAGTTG,0.13
15,TTTGTCACGTGTGCTC,0.06
16,GGTTGCACGTGCGCGT,-0.14
17,GATGTCACGTGCGGAT,0.23
18,AGTGTCACGTGGGGCT,-0.13
19,TGGTTCACGTGTCATG,0.32
20,TTCGGCACGTGTGAGG,0.04
21,TAAGTCACGTGTTCGA,0.05
22,AATACCACGTGAGGGG,0.18
23,ATGGTCACGTGGCTCG,0.13

row,Sequence,relative binding free energy [kcal/mol]
1,GGCTACACGTGGTGGA,0.2
2,TGTTGCACGTGTTGTT,0.05
3,TGGATCACGTGGGGCG,-0.02
4,CGGTACACGTGAGGCG,0.43
5,TAATTCACGTGAGAAG,0.4
6,TGCGTCACGTGTTGAT,0.17
7,AGTGGCACGTGCATAG,-0.28
8,GAATTCACGTGTATTA,0.32
9,GGGTACACGTGGAAGC,0.24
10,TAGGACACGTGCTGGT,0.01
11,ATAATCACGTGTTCGT,-0.03
12,TTGGCCACGTGATAGG,0.02
13,ATGGTCACGTGGTCAG,0.01
14,GTAGTCACGTGTGGTC,0.24
15,GGGTGCACGTGTCAAG,0
16,ATGCTCACGTGTAGGG,0.17
17,TTTAACACGTGCGGGT,0.03
18,ATTGTCACGTGTAAGG,0.26
19,GGGTGCACGTGTTACT,0.13
20,TCGTGCACGTGTTCTT,-0.03
21,CTTAGCACGTGGTGGC,-0.09
22,TGGGGCACGTGGGACC,-0.24
23,ACGGACACGTGGTGTG,-0.16

row,Sequence,relative binding free energy [kcal/mol]
1,GTTTCCACGTGTAGAG,0.14
2,ATGTTCACGTGTTACG,0.27
3,GGGGTCACGTGTTGTC,0.24
4,TTCTGCACGTGGCGGT,0.05
5,GGAAGCACGTGTGACT,0.09
6,GCTTACACGTGGATAG,0.32
7,GGTATCACGTGGCATG,0.02
8,GGGGTCACGTGCAGCG,0.06
9,GAGTTCACGTGTGTAT,0.37
10,TTTGACACGTGGCGCG,-0.11
11,AGAGTCACGTGCGGTC,0.23
12,GTGTGCACGTGTGTAG,-0.01
13,AGAAGCACGTGTTTTT,0.03
14,TTTGTCACGTGTCTAT,0.05
15,CCGTGCACGTGGTGTA,-0.2
16,CCATGCACGTGGTTGG,-0.06
17,GTTATCACGTGGTAAA,0.07
18,TGCGTCACGTGGTTCG,0
19,GGAAACACGTGCTGGT,0.03
20,CTAGACACGTGTGTTT,0
21,ATTAGCACGTGGGGTC,-0.06
22,ATGAACACGTGTCGGT,0.06
23,ACTTTCACGTGAGGGT,0.33

row,Sequence,relative binding free energy [kcal/mol]
1,TTGGGCACGTGATCAA,-0.06
2,AATTGCACGTGTGTTC,-0.01
3,TAGTGCACGTGGCATA,-0.22
4,GACTGCACGTGTGGGG,0.15
5,TACATCACGTGGGGTT,-0.15
6,GTATCCACGTGCGGTT,0.09
7,CTGCGCACGTGGGGCG,-0.23
8,TAATGCACGTGGTTTC,-0.01
9,ATGGACACGTGTGTAG,0.06
10,GGTTCCACGTGAGGGA,0.37
11,TCTATCACGTGGTTTT,0.27
12,TTGTTCACGTGTAGCT,0.26
13,GTGGACACGTGGCGTG,0.03
14,TAATTCACGTGTTGTA,0.25
15,AAGTGCACGTGGGCAT,-0.32
16,GGGAGCACGTGGCAGT,-0.16
17,TTCAACACGTGGGGTA,-0.12
18,TATGTCACGTGAAGTA,0.28
19,AGTTTCACGTGGCTGA,0.18
20,AAGTACACGTGTGATG,0.22
21,GCATTCACGTGGGGTG,0.03
22,GCGATCACGTGTAGTT,0.23
23,TGTGGCACGTGTCTTC,0.01

row,Sequence,relative binding free energy [kcal/mol]
1,TGGTCCACGTGATTGT,0.15
2,GTTAGCACGTGAGTCT,0.22
3,TCGATCACGTGCGGTG,0.01
4,ATTGTCACGTGGGATT,0.05
5,AGTAGCACGTGGTGAT,-0.15
6,TGCTTCACGTGGGTCG,0.12
7,CTGGACACGTGTAGGG,0.1
8,CAATTCACGTGGTTTT,0.19
9,TTTTCCACGTGGGGTA,-0.07
10,GAGTTCACGTGTATGA,0.25
11,TCGCGCACGTGGTAGT,-0.19
12,ATACACACGTGTTGGT,-0.1
13,GTATTCACGTGATACG,0.32
14,ACTAGCACGTGGGGTT,-0.23
15,TTCAGCACGTGATTTG,0.21
16,GGGAACACGTGTGGAT,0.1
17,AAATGCACGTGAGAGG,0.17
18,TTTTTCACGTGACTGT,0.45
19,AGTTTCACGTGGGACT,0.19
20,TTATTCACGTGATCGA,0.27
21,ACGGACACGTGGTGGT,0.09
22,TGGGGCACGTGTTGTG,-0.12
23,GTGATCACGTGGGGAA,-0.02
